# Screen size: about 310,000 compounds; about 14,000 (4.5%) showed an effect of 50% or more. Effects have a minus sign here. The list shows a part of the results.
# Biological target: human ether-à-go-go-related gene (hERG) potassium channel (human, UniProt Q12809)
# Test: primary screen, population patch clamp on CHO cells stably expressing hERG
# 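Note: peak tail current of the secondary pulse compared with the same well before compound.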
# Sequence of human ether-à-go-go-related gene (hERG) potassium channel (Q12809 whole entry, looked up): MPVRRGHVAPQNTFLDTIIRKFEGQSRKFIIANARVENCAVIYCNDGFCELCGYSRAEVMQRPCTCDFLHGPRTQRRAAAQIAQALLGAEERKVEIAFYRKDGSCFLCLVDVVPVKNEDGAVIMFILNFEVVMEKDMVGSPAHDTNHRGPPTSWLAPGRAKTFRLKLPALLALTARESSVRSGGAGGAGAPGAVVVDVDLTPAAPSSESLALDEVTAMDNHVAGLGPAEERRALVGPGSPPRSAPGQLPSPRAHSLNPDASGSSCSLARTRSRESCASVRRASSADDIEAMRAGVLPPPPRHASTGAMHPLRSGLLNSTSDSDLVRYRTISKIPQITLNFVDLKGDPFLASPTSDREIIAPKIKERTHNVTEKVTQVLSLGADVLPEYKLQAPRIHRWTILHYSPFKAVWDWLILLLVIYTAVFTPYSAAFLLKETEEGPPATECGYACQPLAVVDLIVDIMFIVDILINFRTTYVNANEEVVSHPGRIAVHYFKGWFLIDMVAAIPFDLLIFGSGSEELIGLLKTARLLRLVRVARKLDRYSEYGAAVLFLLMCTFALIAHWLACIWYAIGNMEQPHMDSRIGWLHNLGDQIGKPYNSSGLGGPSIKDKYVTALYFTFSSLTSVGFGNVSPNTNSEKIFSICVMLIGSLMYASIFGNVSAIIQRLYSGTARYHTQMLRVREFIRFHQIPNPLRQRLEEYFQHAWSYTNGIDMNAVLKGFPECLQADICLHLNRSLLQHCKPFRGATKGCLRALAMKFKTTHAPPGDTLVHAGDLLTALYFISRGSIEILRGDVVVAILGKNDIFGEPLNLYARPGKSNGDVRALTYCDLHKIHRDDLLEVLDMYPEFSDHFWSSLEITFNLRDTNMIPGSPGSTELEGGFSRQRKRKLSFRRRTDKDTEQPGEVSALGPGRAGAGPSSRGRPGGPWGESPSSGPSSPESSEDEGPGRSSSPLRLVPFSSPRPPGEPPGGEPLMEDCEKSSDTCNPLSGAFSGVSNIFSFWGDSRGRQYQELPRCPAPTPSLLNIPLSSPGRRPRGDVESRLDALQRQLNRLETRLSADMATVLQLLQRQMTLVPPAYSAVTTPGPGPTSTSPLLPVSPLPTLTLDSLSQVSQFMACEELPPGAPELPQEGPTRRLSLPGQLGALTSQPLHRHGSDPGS
row,Structure (SMILES),"hERG current change (%, negative = inhibition) at 10uM [%]"
1,Cc1ccccc1N1CCN(C(=O)CCN2C(=O)c3ccccc3C2=O)CC1,-23.5
2,COc1ccc(N2CCN(S(=O)(=O)c3ccc(C(=O)NCc4ccco4)cc3)CC2)cc1,-3.45
3,Cc1ccc(N2C(=O)NC(NS(=O)(=O)c3ccc(C)cc3)(C(F)(F)F)C2=O)cc1 (centres unmarked),-4.62
4,C/C(N)=C(/C#N)C(=O)COC(=O)COc1ccc(Cl)cc1C,-1.55
5,Cl.NC(CC(=O)O)c1ccc(F)cc1 (centres unmarked),3.15
6,COc1ccc(N2CCN(C(=O)COC(=O)CNC(=O)c3ccc(C)cc3)CC2)cc1,-21.3
7,NC(=O)N1N=C2/C(=C/c3ccccc3)CCCC2C1c1ccccc1 (centres unmarked),-17.1
8,COc1cccc(/C=C(\CC(=O)O)c2nc3ccccc3s2)c1,11.6
9,COc1ccccc1CP(=O)(c1ccccc1)c1ccccc1,-6.07
10,COCCn1c(Cc2ccccc2)nnc1SC(C)C(=O)NC1CC1 (centres unmarked),-22.4
11,CC(C)c1ccc(-c2nnc(SCC(=O)NC3CC3)n2C)cc1,6.36
12,COc1ccc2cc(Br)ccc2c1CC(=O)NC1CC(C)(C)NC(C)(C)C1,-12.9
13,Cc1cccc(C(=O)NCC(=O)OCc2cc(=O)n3ccsc3n2)c1,4.36
14,CCOc1ccc(NC(=O)NCc2cccn2C)cc1,1.46
15,COc1ccc(N2CC(C(=O)Nc3ccncc3)CC2=O)cc1 (centres unmarked),9.19
16,Cc1ccc(NC(=O)COC(=O)COc2ccc3ccc(=O)oc3c2)cc1[N+](=O)[O-],3.51
17,OCCC1CN(Cc2ccon2)CCN1CCc1ccccc1 (centres unmarked),-19.2
18,O=C(O)C(=O)O.OC1(c2ccccc2)CCNC2CCCCC21 (centres unmarked),0.512
19,O=S(=O)(Nc1nc2ccccc2nc1Cl)c1ccc(F)cc1,6.75

row,Structure (SMILES),"hERG current change (%, negative = inhibition) at 10uM [%]"
1,O=C(CSc1nnnn1-c1ccc2c(c1)OCO2)NCc1cccs1,-26.6
2,CC(=O)c1cc2c(cc1NC(=O)CN1CCOCC1)OCO2,1.1
3,CCOC(=O)C1C(c2ccc(Cl)cc2)NC(=S)NC1(O)C(F)(F)F (centres unmarked),16.7
4,Cc1ccc2nc3nc(NCC4CCCO4)c(C(=O)NC4CCCCC4)cc3c(=O)n2c1 (centres unmarked),-78.1
5,COc1cc(C(C#N)N2CCCCC2)ccc1O (centres unmarked),4.58
6,O=C(c1cccs1)N1CCN(Cc2ccc3c(c2)OCO3)CC1,-15.7
7,COc1ccc(-c2cc(CS(=O)(=O)c3ccccc3)on2)cc1,-15
8,Cc1cc(C(=O)N/N=C\c2ccc(COc3ccc([N+](=O)[O-])cc3)o2)ccc1[N+](=O)[O-],-7.77
9,Cn1c(=O)c2ncn(CC(=O)Nc3cccc(-c4nc5ccccc5s4)c3)c2n(C)c1=O,-23.8
10,CCOC(=O)c1c(-c2ccc(C)o2)csc1NC(=O)CSc1nnnn1-c1ccccc1,-3.66
11,CN1CCN(CC(O)COCCOc2ccc(Br)cc2)CC1.Cl (centres unmarked),10.4
12,COc1ccc(/C(C)=N/NC(=O)C2C3CCCCC32)c(OC)c1 (centres unmarked),-0.79
13,CCN(CC)S(=O)(=O)c1ccc(F)c(C(=O)NCCC(C)C)c1,-40.2
14,COc1ccc(N(C(=O)CNC(=O)c2ccco2)C(C(=O)NCC2CCCO2)c2ccccc2)cc1Cl (centres unmarked),11.9
15,COc1cccc(N2CCN(C(=O)C3C4C=CC5(CN(Cc6ccccc6Cl)C(=O)C35)O4)CC2)c1 (centres unmarked),-14.1
16,O=C(O)C1CC=CCC1C(=O)Nc1ccccc1 (centres unmarked),-0.752
17,CCc1ccccc1NC(=O)c1ccc2c(O)c(S(=O)(=O)c3ccc(OC)cc3)c(=O)[nH]c2c1,11
18,NC(N)=NS(=O)(=O)c1ccc(N/C=C\C(=O)c2ccncc2)cc1,11.2
19,O=C(CCc1nnc(CCCCc2ccccc2)o1)N(CCO)Cc1ccccc1,-1.97

row,Structure (SMILES),"hERG current change (%, negative = inhibition) at 10uM [%]"
1,CC(C)Oc1ccc(/C=C(\NC(=O)/C=C/c2ccco2)C(=O)NCCc2nc3ccccc3[nH]2)cc1,-28.6
2,O=C(NCC(c1ccc(F)cc1)N1CCOCC1)c1ccco1 (centres unmarked),-14.5
3,C/C(=N\NC(=O)C1CCCC1)c1ccc(Cl)c(Cl)c1,13.7
4,Cc1[nH]c2ccccc2c1C(=O)Cn1c(=O)oc2ccccc21,1.12
5,CCOc1ccccc1NC(=O)CSc1nnc(NC(=O)c2ccco2)s1,21.7
6,O=C(COC(=O)c1ccc(F)cc1Cl)NC1CCS(=O)(=O)C1 (centres unmarked),-7.68
7,COC(=O)C(C)n1cnc2c(nnn2-c2ccc(OC)cc2)c1=O (centres unmarked),6.69
8,COCCNC(=O)CSc1nc2sc(C)c(C)c2c(=O)n1-c1ccccc1,1.63
9,COc1ccc(OC)c(S(=O)(=O)N2CCN(C(=O)CCc3ccccc3)CC2)c1,-2.06
10,Cc1cc(C)n(C(CC(=O)N2CCc3ccccc3C2)C(=O)O)n1 (centres unmarked),-4.33
11,CCOC(=O)c1cccc(NC(=O)C(C)N2C(=O)c3ccccc3C2=O)c1 (centres unmarked),-8.2
12,CN(C)c1nnnn1-c1cccc(Oc2ncc(C(F)(F)F)cc2Cl)c1,-10.2
13,CCCOc1ccc(/C=C/C(=O)NC2CCCCC2)cc1,6.17
14,CSc1cccc(NC(=O)OC2CCCCCCCCCCC2)c1,7.83
15,CN(c1ccc(C(=O)NC2CC3CCC2C3)cc1)S(C)(=O)=O (centres unmarked),1.44
16,CN(NC1OC(=O)c2ccccc21)c1ccccc1[N+](=O)[O-] (centres unmarked),9.64
17,O=C(Cn1cnc2ccccc21)NCc1ccccc1,9.76
18,Fc1ccc(N2CCN(c3nc(CN4CCOCC4)nc4scc(-c5ccccc5)c34)CC2)cc1,-5.05

# Reference: publication PMC4336329 (PLoS ONE, 2015)
